Measurements published in the supplement of paper PMC7335073.
The full ranking holds about 4,100 sequences; the median of “relative CpG methylation activity (normalised to average over all NNNCGNNN flanks)” is about 0.94, and the highest 2% start at about 1.9. This is one part of the list.

molecular target: DNMT3B catalytic domain (mouse) (UniProt O88509); assay: relative CpG methylation activity (normalised to average over all NNNCGNNN flanks) (relative (1 = mean)); higher = more methylation of the central CpG; conditions: system: in vitro, murine catalytic domain; CpG state: hemimethylated substrate pool; residues: 558-859
Chain of UniProt O88509 (O88509 558-859): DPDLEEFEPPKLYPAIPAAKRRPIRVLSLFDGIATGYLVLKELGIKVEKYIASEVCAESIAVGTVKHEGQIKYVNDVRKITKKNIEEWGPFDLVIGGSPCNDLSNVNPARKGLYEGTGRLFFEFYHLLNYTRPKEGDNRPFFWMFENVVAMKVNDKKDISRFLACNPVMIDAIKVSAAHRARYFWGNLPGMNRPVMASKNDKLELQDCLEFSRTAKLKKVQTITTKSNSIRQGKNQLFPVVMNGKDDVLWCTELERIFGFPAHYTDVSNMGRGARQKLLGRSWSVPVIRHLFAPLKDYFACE
Method: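 Deep enzymology: a pool of dsDNA substrates with a central CpG flanked by 10 random nucleotides on each side was methylated by the murine DNMT3A or DNMT3B catalytic domain (0.8 mM SAM, 37 °C, 60 min). Methylation was then read out by hairpin ligation, bisulfite conversion and NGS. Values are the average methylation of each NNNCGNNN context (±3 flanks; the outer flanks are random and averaged over), normalised to the overall mean, so 1 = average activity.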

Sequence | relative CpG methylation activity
CCACGTGT | 0.602
AGACGGGG | 1.39
GAGCGATC | 1.19
AAGCGCGA | 0.317
TTGCGTTA | 0.783
TTTCGCCC | 1.24
TGGCGCGG | 0.275
GCCCGGTG | 0.787
TGACGCTT | 0.78
GGCCGGGT | 0.602
AAACGTTG | 0.803
ACCCGCCC | 0.915
GTTCGAAT | 1.18
CGGCGCTG | 0.263
AGGCGCTG | 0.492
TCACGCTT | 1.36
CGCCGGTG | 0.818
GGTCGTTT | 0.417
ACCCGTCA | 0.703
GGGCGACC | 0.686
TCGCGACT | 0.892
GCCCGTCA | 0.497
CAGCGCGC | 0.727
GGGCGATT | 0.992
TTGCGGAT | 0.852

Sequence | relative CpG methylation activity
TCTCGAAA | 1.17
AGTCGCGG | 0.566
AGGCGTAG | 0.21
GTCCGCAC | 0.958
GCCCGTGC | 0.63
CTCCGTGT | 0.492
CCCCGCAA | 0.568
GGCCGCCT | 0.503
CCTCGCCC | 0.848
AAGCGGGA | 0.688
CACCGAGA | 1.58
CCACGAAT | 1.3
AACCGCAC | 0.398
GCCCGCCA | 0.601
ACCCGCAT | 0.431
CCTCGGTG | 1.04
TACCGAGT | 1.32
GGACGGAC | 1.09
CGCCGCTA | 0.437
TTACGTCT | 1.64
TGTCGAAG | 1.15
GGACGTGC | 0.639
CCTCGCAG | 0.493
TCCCGATG | 1.39
CCGCGGGC | 1.53

Sequence | relative CpG methylation activity
CCACGACT | 1.36
GCCCGGAT | 0.786
CTCCGTCG | 0.982
GAGCGATT | 0.905
GGACGCAA | 0.45
GGGCGTTG | 0.169
ATGCGTCC | 1.33
AGACGATC | 1.75
CTGCGTTC | 1.2
TAACGTAG | 0.754
CACCGACT | 1.12
CCCCGGGA | 1.45
CCTCGTCC | 1.07
TGACGGGT | 1.07
TAACGACC | 1.66
TAGCGCAT | 0.387
TGTCGACG | 0.902
GACCGAGG | 1.05
AAGCGAAA | 0.997
CGGCGATG | 0.694
TGGCGCCG | 0.638
AACCGGCC | 1.1
TAACGTCA | 1.32
AGCCGCCT | 0.423
TGACGCTG | 0.83

Sequence | relative CpG methylation activity
GGACGGAA | 0.833
CCTCGTAC | 1.16
GAACGCCT | 1.17
CGTCGATG | 1.16
GTCCGTAT | 0.661
TACCGATG | 1.21
AGACGCCT | 1.24
GCACGTCG | 1.05
CGTCGGAG | 0.42
GGGCGCCC | 0.511
GAACGTGA | 0.599
AACCGACC | 0.818
CAACGCAG | 0.792
AGACGTTC | 0.768
ATGCGCCA | 0.894
GACCGCAC | 0.494
TAACGGGA | 1.5
CATCGTAA | 0.366
TACCGGCG | 1.39
AACCGTTA | 0.238
GTGCGCAG | 0.503
AACCGCCG | 0.521
CGCCGTTC | 0.496
GGCCGGTT | 0.611
CAGCGCTA | 0.431

Sequence | relative CpG methylation activity
TCACGGAT | 1.1
CCTCGAAG | 1.07
GGGCGACT | 0.636
ACCCGGCC | 1.51
GCGCGCGC | 0.669
GATCGACT | 1.14
CTCCGGGT | 1.8
AGTCGCAC | 0.509
AGCCGCCC | 0.384
CATCGTAG | 0.429
AGTCGGCT | 1.79
TCCCGAGA | 1.74
GGACGTTG | 0.384
CTGCGGAT | 1.06
GAGCGAGT | 0.728
ACCCGGTG | 0.976
GGGCGCGT | 0.42
CGACGAAA | 1.04
TCTCGCAC | 0.805
ACGCGGAA | 0.651
CTTCGTGG | 0.188
CCCCGTCC | 1.32
TGACGTGT | 0.366
TTGCGACA | 1.15
GGTCGTCC | 0.737

Sequence | relative CpG methylation activity
GGCCGCTA | 0.382
GGTCGGTT | 1.03
ACCCGATC | 1.51
GCACGCGC | 1.04
CTGCGTCA | 0.944
CACCGGCA | 1.37
AGGCGGAC | 0.386
AGCCGAAA | 0.798
GTTCGACC | 1.32
CCTCGCTC | 1.01
AATCGACT | 1.44
ATACGTGC | 1.15
TTCCGTTG | 0.707
ACACGCGC | 1.26
AATCGTAG | 0.186
TAGCGCAG | 0.415
ACCCGCTA | 0.814
ACTCGAGA | 1.58
CTTCGTTT | 0.871
TCGCGAAC | 1.17
ACTCGGCG | 1.6
CGTCGTTC | 0.4
TACCGGTG | 0.974
GGGCGGTT | 0.79
CATCGATC | 1.81

Sequence | relative CpG methylation activity
TTTCGCGG | 0.884
TCGCGATC | 1.24
GGGCGCTT | 0.417
CCGCGGCA | 1.33
TCGCGGAT | 0.424
AAACGCCA | 1.4
TCGCGTCA | 0.847
TAACGAGG | 1.81
TGACGCAT | 0.608
TGTCGTGG | 0.105
CGGCGTCG | 0.355
GTTCGGGG | 1.24
CCCCGAAG | 1.07
TGGCGGCA | 1.4
ACGCGAGA | 1.31
TCACGATA | 1.76
CCTCGTTT | 0.376
ACTCGTTG | 0.336
TCCCGGAA | 0.933
GTTCGAAA | 1.31
ATACGGAA | 1.32
GGACGCTA | 0.637
GCCCGGTT | 1.26
ATGCGCGC | 0.877
TCCCGGTC | 1.6

Sequence | relative CpG methylation activity
GCCCGCTT | 0.882
TGCCGTAT | 0.262
ACACGGTC | 1.64
AGACGGAT | 0.732
GAACGCGA | 0.783
GGTCGACG | 0.963
GCTCGCAT | 0.481
AGGCGTTA | 0.417
CTGCGCGG | 0.801
AACCGGTT | 0.799
AACCGGGT | 0.787
GCTCGAAT | 1.27
GCTCGTGC | 0.493
CCCCGCTG | 0.869
TTACGTAC | 1.95
CCCCGGCA | 1.72
AGCCGTCT | 0.256
CTCCGATG | 1.67
AGCCGACC | 0.654
ATGCGATG | 1.1
AACCGGTC | 1.09
TTACGTTC | 1.66
CGTCGCCT | 0.833
CGCCGCAC | 0.521
GTACGGGC | 1.63

Sequence | relative CpG methylation activity
TTGCGTAG | 1.18
GAGCGTCT | 1.03
AATCGTTG | 0.243
CTACGGCC | 1.96
GTACGATT | 1.75
TGTCGGAC | 0.833
CCCCGCCT | 1.13
ACCCGAAC | 1.57
TTACGGAC | 1.85
CCACGGGA | 1.42
ATACGTAA | 1.1
TTCCGGCT | 1.61
TTTCGTTG | 0.558
TGACGCAG | 0.63
GGACGTCA | 0.756
GAGCGGAG | 0.444
GGCCGCTC | 0.521
CCGCGTCC | 0.769
CGGCGAAG | 0.694
CGTCGCTG | 0.604
AGACGGCT | 1.81
CTCCGTCT | 1.02
GCTCGCCC | 0.844
GCTCGTAG | 0.266
TGCCGAAG | 0.75

Sequence | relative CpG methylation activity
GGCCGGGA | 0.745
CAGCGGGG | 0.909
GGTCGTGT | 0.0468
TGACGTGC | 0.66
AAGCGTGG | 0.419
GTACGAGT | 1.48
TTACGAAG | 1.79
CAACGAGA | 1.94
CCGCGGTA | 0.965
CAACGAGG | 1.5
GTCCGAGC | 1.63
GTTCGCAT | 0.484
AGCCGGTA | 0.5
TTGCGTAA | 0.853
CCTCGCGC | 0.983
CACCGACA | 1.05
AGACGCGA | 0.772
ACACGCCG | 1.24
GAGCGCAG | 0.296
TCCCGCTA | 0.854
TTACGGGT | 1.83
AAACGATA | 1.81
TTACGCCG | 1.59
TTACGATC | 2.01
CCACGAAC | 1.64

Sequence | relative CpG methylation activity
TGCCGGTC | 0.758
GCGCGTGG | 0.526
GTACGATA | 1.73
GCGCGTGC | 0.619
TGTCGCGT | 0.412
ATTCGTCA | 0.607
ACTCGCAC | 0.58
CCTCGGTT | 1.13
ATCCGGGG | 1.39
TGGCGACA | 0.571
AACCGGGA | 0.901
TTCCGATA | 1.68
CCACGGAT | 0.839
CGGCGATC | 0.966
GTTCGTAA | 0.406
AAACGCGT | 1.19
GCACGACA | 1.19
TTCCGGGG | 1.5
GAACGTTT | 0.687
TCCCGAGG | 1.3
ATTCGTAA | 0.376
ATACGCTG | 1.34
GGACGAGA | 1.5
TGACGGGA | 1.47
ATGCGACT | 1.13

Sequence | relative CpG methylation activity
TCCCGCTC | 0.937
ACTCGAGT | 1.2
AGACGGTA | 1.16
GTGCGTAG | 0.761
ACGCGCAC | 0.613
CCACGCAA | 0.675
ACACGGTA | 1.23
AAACGATG | 1.35
GGCCGTGA | 0.085
GATCGGCT | 1.57
ACTCGGAC | 0.983
TTACGGGC | 2.03
GTTCGTTT | 0.253
GGGCGACG | 0.372
ACACGACG | 1.34
ACGCGCAA | 0.333
AGCCGGGA | 0.667
CAACGTCT | 1.47
CGGCGAAC | 0.831
CTACGAAC | 1.91
TCTCGAAG | 1.03
CGACGTAT | 0.584
CTACGGTA | 1.81
AGGCGGGT | 0.507
GAACGTTG | 0.862

Sequence | relative CpG methylation activity
ATTCGTTA | 0.305
GCCCGGTA | 1.3
AAACGAGA | 1.9
TGTCGTTC | 0.524
CCGCGCCA | 0.71
AATCGCTA | 0.608
GCGCGTTC | 0.746
GACCGAAT | 0.884
CAACGTCA | 1.15
AACCGCGT | 0.161
TCGCGTTC | 0.889
GGACGGTG | 1
TGGCGTGA | 0.0839
ACGCGGTT | 0.772
CAACGTCG | 1.12
GCACGCCT | 1.2
CTGCGCTT | 1.4
TTCCGTAC | 1.61
ATTCGCGA | 0.65
TAGCGATT | 0.857
GACCGCAG | 0.187
GTGCGCAT | 0.69
GGGCGGTG | 0.446
CGCCGGCA | 1.32
TGTCGCAT | 0.323

Sequence | relative CpG methylation activity
GGCCGGTA | 0.775
GCACGTCT | 1.1
TTTCGGAA | 0.871
GTGCGTAC | 1.01
CAACGAAC | 1.62
AACCGAAT | 0.909
GTGCGTTG | 0.688
CTGCGAGC | 1.76
GAACGCGT | 0.967
GTGCGCAC | 0.939
GGTCGCAT | 0.368
CCTCGTCG | 0.85
CTGCGGAC | 1.21
CTGCGTTA | 0.743
CTTCGGCC | 1.79
TTGCGCGC | 0.894
TTCCGCGA | 0.904
GTCCGTAG | 0.397
CGACGCCT | 1.15
